PubChem BioAssay AID1347428 (National Center for Advancing Translational Sciences (NCATS), 2020)
In all, about 91,000 compounds went through this assay and about 290 (0.32%) were called active. Inconclusive results, whose numbers are uncertain, are shown with a selection of clear calls. Calls come from the whole dose curve; as a rule, active = well fitted inhibition curve with a large enough effect; inconclusive = small, poorly fitted or top-dose-only effect; inactive = no such curve, though single readings can be large or run the other way. Potencies of inconclusive entries are doubtful fits and often do not repeat.

Each molecule was assayed against Single-stranded DNA cytosine deaminase (Homo sapiens) (UniProt Q9GZX7) (assay: Primary qHTS assay for inhibitors of Activation Induced Cytidine Deaminase (AID): AID signal). Details: AID deamination FRET fluorescence, UDG-coupled, 4 h; series mostly up to 115 µM.
Note: nearly all actives have a fitted effect of over 25% in size.
Potency is the fitted concentration of half-maximal effect; tags give direction and shape of the fitted curve.

UniProt Q9GZX7, sequence (Q9GZX7 whole entry, looked up): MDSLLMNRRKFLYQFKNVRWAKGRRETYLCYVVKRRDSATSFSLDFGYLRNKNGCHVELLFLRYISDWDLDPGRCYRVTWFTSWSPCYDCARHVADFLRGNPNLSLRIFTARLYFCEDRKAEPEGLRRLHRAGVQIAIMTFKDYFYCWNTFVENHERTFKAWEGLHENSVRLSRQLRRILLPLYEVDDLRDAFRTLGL

SMILES | Potency
CCc1nc2ccccc2n1CCCCOc1ccccc1C | inconclusive: 31.6 µM [inhibitor, full curve]
Cc1ccc(C)c(CN2CCCN(Cc3cc(C)ccc3C)S2(=O)=O)c1 | inconclusive: 50.1 µM [inhibitor, partial curve, poor fit]
CCCC(O)c1nc2ccccc2n1CCCCOc1ccc(OC)cc1 (stereo not drawn) | inconclusive: 89.1 µM [inhibitor, single point]
COc1ccc(S(=O)(=O)c2cn(Cc3ccccc3)c3cc(N4CCCC4)c(F)cc3c2=O)cc1 | inconclusive: 7.94 µM [inhibitor, full curve]
CCN1C(C(=O)c2ccccc2)=C(OC(=O)C(C)C)c2ccccc2S1(=O)=O | inconclusive: 44.7 µM [inhibitor, partial curve, poor fit]
COc1ccc(CNC(=O)CN(c2ccccc2OC)S(=O)(=O)c2ccc(C)cc2)cc1 | inconclusive: 89.1 µM [inhibitor, partial curve, poor fit]
CCOC(=O)c1sc(NC(=O)c2nc3ncccn3n2)c(C(=O)OC)c1C | inconclusive: 10 µM [inhibitor, partial curve, poor fit]
CSC1=N/C(=C\c2ccc(-c3ccc(Cl)cc3)o2)C(=O)S1 | inactive
CCC(Sc1nnc2c(=O)n(-c3ccc(F)cc3)ccn12)C(=O)Nc1cc(C)ccc1C (stereo not drawn) | inactive
Cc1ccc(CNc2ccc(O)cc2)s1 | inconclusive: 39.8 µM [inhibitor, partial curve, poor fit]
COc1ccc(Cl)cc1NC(=O)CSc1ccc(-c2sc(C)nc2C)nn1 | inconclusive: 89.1 µM [inhibitor, partial curve, poor fit]
CCN(CC)S(=O)(=O)c1ccc(NC(=O)CCc2c(C)nc3cc(-c4ccc(Cl)cc4)nn3c2C)cc1 | inconclusive: 31.6 µM [inhibitor, partial curve, poor fit]
CCN(C(=O)CSc1nc2ccccc2n1CC(=O)Nc1ccccc1C)c1ccccc1 | inconclusive: 89.1 µM [inhibitor, single point]
O=C(CCSCc1ccccc1Cl)N1CCN(c2cccc(Cl)c2)CC1 | inconclusive: 20 µM [inhibitor, full curve]
O=C(CCNS(=O)(=O)c1ccc2c(c1)CCN2C(=O)C1CC1)N1CCN(c2ccccc2F)CC1 | inactive
COc1cccc(-c2cc(C(=O)Nc3ccn(Cc4ccc(C)cc4)n3)no2)c1 | inactive
CCOc1ccc(-c2nc(C#N)c(NCCN3CCOCC3)o2)cc1 | inactive
O/N=C/c1cccc(OCc2ccc(F)cc2)c1 | inactive
O=C(NCCN1CCCCC1)c1ccc(Cn2c(SCc3cccc(F)c3)nc3cccnc32)cc1 | inconclusive: 63.1 µM [inhibitor, partial curve, poor fit]
COc1ccc(CCNC(=O)c2ccc3c(Cl)c4c(nc3c2)CCCC4)c(OC)c1 | inconclusive: 25.1 µM [inhibitor, partial curve, poor fit]
Cn1c(=O)c2c(nc(N3CCCCCC3)n2Cc2cccc(Br)c2)n(C)c1=O | inconclusive: 56.2 µM [inhibitor, partial curve, poor fit]

SMILES | Potency
O=C(CC1N=C2c3ccccc3N=C(SCc3cccc(F)c3)N2C1=O)NCc1ccc2c(c1)OCO2 (stereo not drawn) | inconclusive: 35.5 µM [inhibitor, full curve, poor fit]
O=C(CCn1nc(-c2ccc(Cl)cc2)c2ccccc2c1=O)N1CCCC1 | inactive
CC(C)C(CNC(=O)Cc1n[nH]c(=O)c2ccccc12)N1CCOCC1 (stereo not drawn) | inactive
O=S1(=O)C=C(Sc2nn(-c3ccccc3)c(=S)s2)c2ccccc21 | inactive
O=C(O)CCN1CCN(CCC(=O)O)CC1 | inactive
CC(C)c1ccc2c(c1)-c1ccccc1S(=O)(=O)N2CC(=O)N1CCCCC1 | inconclusive: 89.1 µM [inhibitor, partial curve, poor fit]
Cc1ccc(C)c(OCc2ccc(-c3nc(C#N)c(NC(C)C)o3)o2)c1 | inconclusive: 39.8 µM [inhibitor, partial curve, poor fit]
Cn1c(=O)cc(SCC(=O)N2CCN(c3ccccc3F)CC2)c2cc(Cl)ccc21 | inconclusive: 22.4 µM [inhibitor, full curve]
Cc1ccc(CNC(=O)c2ccc(-c3nc(CS(=O)c4ccccc4)c(C)o3)cc2)cc1 (stereo not drawn) | inactive
Cc1cccc(-c2nc(CSCC(=O)NCCc3ccc(Cl)cc3)c(C)o2)c1 | inconclusive: 50.1 µM [inhibitor, partial curve, poor fit]
COc1cc(/C=C/c2nc(C#N)c(NCCc3ccccc3)o2)cc(OC)c1OC | inconclusive: 70.8 µM [inhibitor, single point]
COc1cccc(CNC(=O)c2ccc(C(F)(F)F)cc2)c1 | inactive
COc1cc(NC(=O)N2CCC3(CC2)Nc2cc(F)ccc2-n2cccc23)cc(OC)c1OC | inconclusive: 25.1 µM [inhibitor, full curve, poor fit]
Cn1cc(/C=C2/CC(=O)N(c3ccccc3)C2=O)c2ccccc21 | inactive
Cc1ccc(C(=O)C(C)C(=O)c2ccc(C)cc2)cc1 | inactive
Cc1c(Cl)cccc1-n1ncc(C(=O)NCc2cccs2)c1C1CCN(C(=O)OC(C)(C)C)CC1 | inconclusive: 50.1 µM [inhibitor, partial curve, poor fit]
CCn1cc(C(=O)NCCc2ccc(OC)c(OC)c2)c(=O)c2cc(S(=O)(=O)N3CCC(C)CC3)ccc21 | inconclusive: 31.6 µM [inhibitor, full curve, poor fit]
Cc1ccc(OC(=O)CSc2nnc(-c3cccs3)o2)cc1C | inconclusive: 2.51 µM [inhibitor, full curve, poor fit]
COc1ccc(Cl)cc1NC(=O)Cn1nc(Cc2ccncc2)c2ccccc2c1=O | inconclusive: 56.2 µM [inhibitor, partial curve, poor fit]
Cc1ccc(CNC(=O)CSc2c3c(nc4cc(Cl)ccc24)CCCC3)cc1 | inconclusive: 10 µM [inhibitor, full curve, poor fit]
COc1ccc(-n2c(-c3ccc(C)cc3)cc3c2CC(C)(C)CC3=O)c(OC)c1 | inconclusive: 44.7 µM [inhibitor, partial curve, poor fit]

SMILES | Potency
Cc1cccc(OCC(=O)Nc2cc(-c3nn(C)c(=O)c4ccccc34)ccc2N2CCOCC2)c1 | inconclusive: 31.6 µM [inhibitor, full curve]
Cc1ccc(CNC(=O)c2scnc2C)cn1 | inactive
CCc1ccc(CN(Cc2ccco2)C(=O)COc2ccc(Cl)c(C)c2)cc1 | inconclusive: 15.8 µM [inhibitor, full curve, poor fit]
CCn1cc(C(=O)NCc2ccc(C)cc2)c(=O)c2cc(S(=O)(=O)N(C)C3CCCCC3)ccc21 | inconclusive: 20 µM [inhibitor, full curve, poor fit]
CCN(CC)c1nc2c(S(=O)(=O)c3cccc(Cl)c3)nnn2c2ccsc12 | inconclusive: 14.1 µM [inhibitor, full curve, poor fit]
O=C(NCc1ccccc1)C1CCN(C(=O)/C=C/c2cccc(C(F)(F)F)c2)CC1 | inactive
Cc1cccc(OCC(O)Cn2c(=N)n(CCN3CCCCC3)c3ccccc32)c1 (stereo not drawn) | inconclusive: 63.1 µM [inhibitor, partial curve, poor fit]
CC(=O)N/N=C(/C)c1ccc(NC(=O)C2CC2)cc1 | inactive
COc1ccc(CNC(=O)Cn2nc(N3CCN(c4ccccc4)CC3)ccc2=O)c(OC)c1 | inactive
NS(=O)(=O)c1ccc(NC(=O)c2ccc([N+](=O)[O-])cc2[N+](=O)[O-])cc1 | inactive
Cc1ccc(C)c2c(=O)c3ccccc3sc12 | inconclusive: 50.1 µM [inhibitor, partial curve, poor fit]
Cc1cc(C)n(-c2nc3cc(Cl)ccc3nc2Nc2ccc(CC(=O)O)cc2)n1 | inconclusive: 14.1 µM [inhibitor, single point]
Cc1ccccc1NC(=O)Cn1cc(S(=O)(=O)c2ccccc2)c(=O)c2ccccc21 | inconclusive: 17.8 µM [inhibitor, partial curve, poor fit]
Cc1ccc(Cl)cc1N1CCN(c2ncnc3c2nc2n3CCCC2)CC1 | inconclusive: 100 µM [inhibitor, single point]
CCCN(C(=O)c1cc(S(=O)(=O)N2CCc3ccccc32)cn1C)c1ccc(OCC)cc1 | inconclusive: 56.2 µM [inhibitor, partial curve, poor fit]
COc1ccccc1CCNC(=O)c1cccn1-c1nnc(N2CCCC2)s1 | inconclusive: 79.4 µM [inhibitor, single point]
COc1cccc(C(=O)Nc2ccc3nc(SCC(=O)N(C)c4ccccc4)sc3c2)c1 | inconclusive: 39.8 µM [inhibitor, single point]
Cc1ccc(Cc2nc3ccccc3nc2SCC(=O)N2CCC(C)CC2)cc1 | inconclusive: 50.1 µM [inhibitor, partial curve, poor fit]
Cc1ccc(-n2nc(C)c3c(C)c(CCC(=O)NC(C)c4ccccc4)c(C)nc32)cc1 (stereo not drawn) | inconclusive: 7.08 µM [inhibitor, partial curve, poor fit]
COC(=O)c1ccc2c(=O)n(CCCCCC(=O)NCCc3ccccc3)c(=O)[nH]c2c1 | inconclusive: 28.2 µM [inhibitor, full curve]
COc1cccc(CN2C(=O)CN(C3CCCCC3)C(=O)C2c2ccc(OC(C)C)c(OC)c2)c1 (stereo not drawn) | inconclusive: 39.8 µM [inhibitor, single point]
